A short description of test [1]: Cross reactivity (IC50 ratio), Serotonin Hydrochloride. Format: binding. Further details: key: NCR = no cross reactivity detected. The source says: (§1) Of these, cotinine, nicotinamide, B-nicotinamide adenine dinucleotide, and nornicotine are nicotine-related molecules; bupropion, varenicline and cytisine are smoking-cessation drugs, and acetylcholine chloride, 3-hydroxytyramine (dopamine), serotonin, and norepinephrine are neurotransmitters. A cross-reactivity of less than 0.1%, less than 0.05%, less than 0.01%, or less than 0.005%, or less than 0.001%, or less than 0.0005%, or less than 0.0001% is considered to be substantially not cross-reactive.

The nature of test [2]: Nicotine binding affinity by Surface Plasmon Resonance Biosensor. Here is the method: The KD values reported below were determined by Surface Plasmon Resonance Biosensor. Other methodology for determining binding affinity also can be used, such as equilibrium dialysis.
A short description of test [3]: Cross reactivity (IC50 ratio), Cytisine. In kind it is binding.
From the text: as §1

Test [4] can be described thus: Cross reactivity (IC50 ratio), Bupropion. Format: binding. Further details: key: NCR = no cross reactivity detected.
From the text: as §1

Test [5] can be described thus: Cross reactivity (IC50 ratio), B-Nicotinamide Adenine Dinucleotide. In kind it is binding.
From the text: as §1

A short description of test [6]: Cross reactivity (IC50 ratio), Varenicline tartrate. Format: binding.
From the text: as §1

Test [7] is described as follows: Cross reactivity (IC50 ratio), Cotinine. Format: binding. Further details: key: NCR = no cross reactivity detected.
From the text: as §1

A short description of test [8]: Cross reactivity (IC50 ratio), Acetylcholine Chloride. In kind it is binding. More on the design: key: NCR = no cross reactivity detected.
From the text: as §1

The nature of test [9]: Cross reactivity (IC50 ratio), Nornicotine. More on the design: key: NCR = no cross reactivity detected. Format: binding.
From the text: as §1

A short description of test [10]: Cross reactivity (IC50 ratio), Dopamine HCl. In kind it is binding. The settings on record: 3-Hydroxytyramine HCl (Dopamine HCl).
From the text: as §1

Test [11] is described as follows: Cross reactivity (IC50 ratio), Norepinephrine. In kind it is binding. The settings on record: (+/−)-Norepinephrine (+)-Bitartrate Salt.
From the text: as §1

Test [12] can be described thus: Cross reactivity (IC50 ratio), Nicotinamide. In kind it is binding. More on the design: key: NCR = no cross reactivity detected.
From the text: as §1

Test [13] in a line: Cross reactivity (IC50 ratio), S-Nicotine. Format: binding.
From the text: as §1

Like-named read-outs stand apart in the source and are kept apart here.

B1: 8D1: IgG1 nicotine-binding antibody, heavy chain SEQ ID NO: 1, light chain SEQ ID NO: 2 (antibody)
heavy: QVRLQESGPGLVKPSGTLSLTCAVSGGSIYSSNWWTWVRQPPGKGLEWVGEIHIRGTTYYNPSLNSRVTISLDKSNNQVSLRLTSVTAADSAVYYCVSQEVGGPDLWGQGTLVTVSS[here human IgG1 constant region without letters]
light: NFMLTQPHSVSESPGKTVTISCTRSGGSIATYYVQWYQQRPGSAPTNVIYKYDQRPSGVPDRFSGSIDSSSNSASLTISGLKTEDEADYYCQSYDNNIQVFGGGTKLTVLGQPKAAPSVTLFPPSSEELQANKATLVCLISDFYPGAVTVAWKADGSPVKAGVETTKPSKQSNNKYAASSYLSLTPEQWKSHRSYSCQVTHEGSTVEKTVAPTECS
The term Kd denotes the equilibrium constant for the complex coming apart. For the molecule B1, the “percent of cross reactivity (IC50, Nicotine/IC50, Compound × 100%)” value is “NCR” in test [1]; 0.0001% in test [3]; “NCR” in [4]; 0.0002% in test [5]; 0.0002% in [6]; “NCR*” in [7]. Also, the “percent of cross reactivity (IC50, Nicotine/IC50, Compound × 100%)” value is listed as “NCR” in test [8]; “NCR” in test [9]; 0.0003% in [10]; 0.0005% in test [11]; “NCR” in [12]; 100% in test [13]. Moreover, the Kd in [2] (S-Nicotine, 25° C., Surface Plasmon Resonance Biosensor, read-out: KD (nM) (S-Nicotine; 25° C.)) came to 5 nM; in test [2] (as printed in Table 4, read-out: S-Nicotine affinity KD), 5 nM.

The values are drawn from patent US11440970B2, “Nicotine-binding antibodies” (priority 2017, dated 2022).
